Reference: article PMC7729032, “Interaction interface in the C-terminal parts of centriole proteins Sas6 and Ana2” (Open Biology, 2020)
These are yes or no findings as the source states them, for the method shown. Binding seen in cells or lysates may run through a third protein. Tags and fused reporters may be left off the sequences shown.

Molecular target: T1, GST-tagged Ana2 wild-type (Drosophila), Q9XZ31
T1 chain: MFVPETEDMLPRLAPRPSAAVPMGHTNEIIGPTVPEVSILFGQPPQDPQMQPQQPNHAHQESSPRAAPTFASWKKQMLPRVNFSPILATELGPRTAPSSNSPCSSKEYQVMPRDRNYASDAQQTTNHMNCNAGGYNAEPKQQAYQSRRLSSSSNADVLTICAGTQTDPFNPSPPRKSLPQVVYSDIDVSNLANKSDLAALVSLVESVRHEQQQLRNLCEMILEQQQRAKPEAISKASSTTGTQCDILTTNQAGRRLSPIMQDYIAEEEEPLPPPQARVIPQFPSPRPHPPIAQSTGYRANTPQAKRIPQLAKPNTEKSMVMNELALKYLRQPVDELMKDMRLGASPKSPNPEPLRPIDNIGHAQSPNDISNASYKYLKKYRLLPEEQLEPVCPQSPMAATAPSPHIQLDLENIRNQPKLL
Test: pull-down; bait from lysate on Glutathione-Sepharose 4B, washed; lysate with MBP-tagged prey added, 1 h at 4°C; washes in 20 mM Tris–HCl pH 7.5, 250 mM NaCl, 5% glycerol, 1 mM DTT, 0.5% Triton; SDS–PAGE with PageBlue staining; only the target purified
Conditions: remark: other sources report otherwise

B1: MBP-Sas6 wild-type, Q9VAC8 1-472 (protein)
chain: MWPPGSEDSYSAKMDYGKSVVNILPSVEMLVNFNGEMTRSSKRSCLLYAERVDFKELLQLRLTEKSDQRRMYITTVDSASFQDLKQDQSLNVSFSGFIDNVVRMLKDCQSGKLELHLTTRDQNLSSGREVHDYYLQFVEIRSFKNLVHLSLPCRSAPLNTVLFYINSMLEASHKKQYILEQSMQQMQAEINAQRAHAERLTTENTNIREALAENTRILEEKHAAEVHQYQEKLSKINEQRSNELERNRRAISGFQAQLDKASLEKAELKSAQEQAEKRCQTLSEELSCCKARVCTLKEQNDKLHGDVANIRKHERKLEYKIEDLKQHTVELQEHIQKGNKEKANIAAELEAEKKILHTKRQALEMASEEISKANQIIVKQSQELLNLKKTIAWRTEVALQQEKAVQAKESLLSLRENELREARITIEKLREEIPQQLQSMRNFAQGLEQKYSKQILILKERLAIPTGKENRR
B1 was tested, and the binding was “no binding”.
